The values that follow come from PubChem BioAssay AID743255 (National Center for Advancing Translational Sciences (NCATS), 2014).

The campaign covered roughly 390,000 compounds. About 910 (0.23%) were called active. Another 5% or so got no clear call; they are omitted. The call rests on the fitted dose curve; in most records, active means well fitted inhibition curve with a large enough effect; inconclusive means small, poorly fitted or top-dose-only effect; inactive means no such curve, though single readings can be large or run the other way. This is a selection; strong and weak results do not stand in their true shares.
On the % scale 0 is the no-effect control and ±100 the full control effect; potency means the concentration at half of the fitted maximal effect.

The target in the assay is Ubiquitin carboxyl-terminal hydrolase 1 (Homo sapiens) (UniProt O94782). Kind of assay: Inhibitors of USP1/UAF1: Primary Screen. Further: nearly all actives have a fitted effect of over 60% in size. As to conditions: recombinant USP1/UAF1, Ub-Rhodamine cleavage fluorescence; activity change, negative = inhibition: at 57.1 µM (top of the series). The procedure, abridged: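 Step one: compound is pinned into 1nM USP1/UAF1 in HEPES pH 7.8 buffer with TCEP. Step two: 15 min room-temperature incubation. Step three: Ub-Rho (150nM final) starts cleavage, tracked by fluorescence over six one-minute reads.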
Chain of UniProt O94782 (O94782 whole entry, looked up): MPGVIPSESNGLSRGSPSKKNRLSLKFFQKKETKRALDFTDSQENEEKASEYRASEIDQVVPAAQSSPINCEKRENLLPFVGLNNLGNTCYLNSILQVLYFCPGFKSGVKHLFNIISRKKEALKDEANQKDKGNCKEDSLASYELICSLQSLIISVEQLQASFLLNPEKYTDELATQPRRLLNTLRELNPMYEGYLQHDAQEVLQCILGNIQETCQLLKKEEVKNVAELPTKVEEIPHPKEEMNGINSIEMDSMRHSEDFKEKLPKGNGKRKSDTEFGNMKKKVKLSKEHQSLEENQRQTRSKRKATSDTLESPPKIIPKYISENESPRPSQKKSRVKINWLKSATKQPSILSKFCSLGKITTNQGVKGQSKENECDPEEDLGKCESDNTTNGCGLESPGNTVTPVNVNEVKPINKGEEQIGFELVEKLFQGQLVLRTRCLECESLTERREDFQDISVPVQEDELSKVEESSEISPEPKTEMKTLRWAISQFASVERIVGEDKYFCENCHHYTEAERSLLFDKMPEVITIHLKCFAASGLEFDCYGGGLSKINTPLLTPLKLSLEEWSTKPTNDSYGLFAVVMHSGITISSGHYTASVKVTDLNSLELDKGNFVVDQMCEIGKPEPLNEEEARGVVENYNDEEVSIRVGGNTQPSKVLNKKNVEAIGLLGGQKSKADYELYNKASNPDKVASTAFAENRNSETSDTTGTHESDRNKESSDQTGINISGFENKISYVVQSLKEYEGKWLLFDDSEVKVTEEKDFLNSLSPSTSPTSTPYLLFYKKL
In the case of `C=CC[C@@H](CC(=O)OC(C)(C)C)C(=O)OC[C@@H]1CCCN1C(=O)[C@H](CC=C)CC(=O)NCCO`, the “activity change, negative = inhibition” value was inactive: -22.2%.
The same measure, in the same setting: to `CC(=O)N1CCCc2cc(S(=O)(=O)N3CCCC(C(=O)N4CCN(c5cc(C)ccc5C)CC4)C3)ccc21` (stereo not drawn) belongs inactive: -19.9%.
Turning to `NC1=CC(=O)C(=O)c2ccccc21`, the Potency was active: 15.8 µM.
Turning to `CCOC(=O)c1nn(-c2ccccc2)c(=O)c2c(N)scc12`, the Potency is active: 17.8 µM.
Turning to `O=[N+]([O-])c1ccc(C=Nc2ccc(Cl)cc2Cl)s1`, the Potency was active: 28.2 µM.
As for `C=CC[C@@H](CC(=O)N[C@H](CO)Cc1ccccc1)C(=O)N[C@H](C)COC(=O)[C@@H](CC=C)CC(=O)OC(C)(C)C`, the “activity change, negative = inhibition” value was inactive: -21.4%.
Consider `CC(C)(C)OC(=O)C[C@H]1C/C=C\C[C@@H](CC(=O)N[C@H](CO)Cc2ccccc2)C(=O)NC[C@H](c2ccccc2)OC1=O`, for which the “activity change, negative = inhibition” value is inactive: -18.8%.
As to `COc1ccc(Cn2c(CCC(=O)Nc3ccccc3OC)nc3cccnc32)cc1`, the “activity change, negative = inhibition” value was inactive: -17.1%.
Take `Cc1cc(C)c(/C=C2\C(=O)Nc3ccccc32)[nH]1`: the Potency is active: 25.1 µM.
With `C[C@@H](NC(=O)c1ncn2c1c(=O)[nH]c1ccc(Br)cc12)c1ccccc1`, the “activity change, negative = inhibition” value is inactive: -12.5%.
The same measure, in the same setting: to `O=C(O)/C(=C\c1ccc(Cl)c([N+](=O)[O-])c1)c1ccc(S(=O)(=O)N2CCCCC2)s1` belongs inactive: -9.42%.
Regarding `O=S(=O)(NCC(Nc1ccc(Cl)cc1)c1ccccc1)c1ccccc1` (stereo not drawn), the “activity change, negative = inhibition” value is inactive: -22.5%.
Turning to `OCC[C@H]1C[C@@H](O)[C@H](O)[C@@]2(OCc3ccccc32)O1`, the “activity change, negative = inhibition” value is inactive: 6.71%.
`CCN(CC)c1ccc(/C=C/C(=O)c2ccc(Br)cc2)cc1`: the Potency is active: 28.2 µM.
Turning to `Cc1ccccc1Cn1cccc1/C=C1/C(=N)N2C=CSC2=NC1=O`, the “activity change, negative = inhibition” value was inactive: 31.6%.
Still for that read-out and setting: next, `C[C@@H]1CN([C@@H](C)CO)C(=O)CCCn2nncc2CO[C@H]1CN(C)Cc1cccc(C(F)(F)F)c1`: inactive: -20.5%; `COc1ccc(NC(=O)CCn2c(=O)c3cccn3c3ccccc32)c(OC)c1`: inactive: -26.4%.
Take `O=C(O)CSc1cc(NS(=O)(=O)c2ccc(Cl)cc2)c2ccccc2c1O`: the Potency is active: 25.1 µM.
Turning to `CC(C)(C)OC(=O)C[C@@H]1C/C=C\C[C@@H](CC(=O)N(CCO)Cc2ccccc2)C(=O)N[C@H](Cc2ccccc2)COC1=O`, the “activity change, negative = inhibition” value is inactive: -16.8%.
As for `O=C(CN1C(=O)COc2ccc(S(=O)(=O)N3CCCCC3)cc21)NCc1ccc(Cl)cc1`, the “activity change, negative = inhibition” value was inactive: -27%.
On the same count and under the same terms, next, `O=C(COCc1cc(-c2ccc3c(c2)OCO3)on1)N1CCN(c2ccccc2)CC1`: inactive: -8.96%.
Regarding `N#C/C(=C/c1ccc(N2CCOCC2)o1)c1ccc(Cl)cc1`, the Potency is active: 28.2 µM.
As for `Cc1ccccc1/C=C/c1nc2ccccc2c(=O)n1Cc1ccccc1`, the “activity change, negative = inhibition” value is inactive: -7.49%.
For `Nc1ccc(/C=C/C(=O)c2cccs2)cc1`, the Potency was active: 25.1 µM.
For `Cc1ccccc1CN(C)C[C@H]1OCc2cnnn2CCCC(=O)N([C@@H](C)CO)C[C@@H]1C`, the “activity change, negative = inhibition” value was inactive: -12.8%.
As for `CCO[C@H]1OC(C(=O)N2CCN(Cc3ccccc3)CC2)=C[C@@H](c2ccc(C(F)(F)F)cc2)[C@@H]1CCCO`, the “activity change, negative = inhibition” value is inactive: 5.77%.
With `C[C@H](CO)N1C[C@H](C)[C@@H](CN(C)S(=O)(=O)c2ccc(Cl)cc2)OCc2cnnn2CCCC1=O`, the “activity change, negative = inhibition” value was inactive: -19.2%.
`O=C(NN1C(=O)/C(=C\c2ccc(O)c([N+](=O)[O-])c2)SC1=S)c1ccccc1Cl`: the “activity change, negative = inhibition” value was inactive: -17.7%.
Take `CCO[C@H]1OC(C(=O)Nc2ccccc2)=C[C@@H](c2ccc(C(F)(F)F)cc2)[C@@H]1CCCO`: the “activity change, negative = inhibition” value was inactive: -28.4%.
Turning to `CCCCNC1=CC(=O)C(=O)c2ccccc21`, the Potency is active: 25.1 µM.
Consider `O=C1CCN2C=Nc3cccc4ccc1c2c34`, for which the Potency is active: 28.2 µM.
On to `Cc1ccc2nc3sc(C(=O)NCc4ccco4)c(N)c3cc2c1`, for which the “activity change, negative = inhibition” value is inactive: 367%.
On to `Cc1ccc(NC(=O)c2sc3nc4c(c(-c5ccco5)c3c2N)CCC4)cc1`, for which the “activity change, negative = inhibition” value was inactive: 249%.
With `O=C(NCCS(=O)(=O)N1CCN(c2ccc(F)cc2)CC1)C1CC(=O)N(c2ccccc2)C1` (stereo not drawn), the “activity change, negative = inhibition” value was inactive: -22.8%.
For the compound `CC(C)OC(=O)N(C)C[C@@H]1OCc2cnnn2CCCC(=O)N([C@H](C)CO)C[C@H]1C`, the “activity change, negative = inhibition” value is inactive: 1.75%.
Same read-out and setting: next, `CCOC(=O)Cn1c(=O)oc2cc(S(=O)(=O)NC(C)c3ccccc3)ccc21` (stereo not drawn): inactive: -11.2%; `C/C(Sc1nnc(Cc2ccccc2)o1)=C(/O)c1ccccc1`: inactive: 8.97%; `COc1ccc(/C=C2\CCCC(C(=O)C(F)(F)F)=C2O)cc1`: inactive: 113%.
On the same count and under the same terms, to `C/C(=N\Nc1ccc([N+](=O)[O-])cc1)c1ccc(-n2nncc2C)cc1` belongs inactive: 74.9%.
`O=C(NCCCN1CCN(c2ccccc2)CC1)c1sc2ncccc2c1-n1cccc1`: the “activity change, negative = inhibition” value is inactive: 2.2%.
Turning to `CN(C)CCC[C@]1(c2ccc(F)cc2)OCc2cc(C#N)ccc21`, the “activity change, negative = inhibition” value was inactive: -11.2%.
Regarding `Cc1cc(/C=C2/NC(=O)NC2=O)c(C)n1-c1ccc(N2CCOCC2)cc1`, the “activity change, negative = inhibition” value was inactive: -2.39%.
In the case of `C[C@H](CO)N1C[C@H](C)[C@@H](CN(C)S(=O)(=O)c2cn(C)cn2)Oc2c(NS(=O)(=O)c3ccc(F)cc3)cccc2C1=O`, the “activity change, negative = inhibition” value was inactive: 3.26%.
